Screen size: about 310,000 compounds; about 14,000 (4.5%) showed an effect of 50% or more. The effect is printed as a negative number. Some of the results follow. Where a SMILES comes first, the peptide text is derived from it. The star is where a group is joined. Cbz = O=C(OCc1ccccc1)*
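Also: peak tail current of the secondary pulse compared with the same well before compound.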

Chain of human ether-à-go-go-related gene (hERG) potassium channel (Q12809 whole entry, looked up): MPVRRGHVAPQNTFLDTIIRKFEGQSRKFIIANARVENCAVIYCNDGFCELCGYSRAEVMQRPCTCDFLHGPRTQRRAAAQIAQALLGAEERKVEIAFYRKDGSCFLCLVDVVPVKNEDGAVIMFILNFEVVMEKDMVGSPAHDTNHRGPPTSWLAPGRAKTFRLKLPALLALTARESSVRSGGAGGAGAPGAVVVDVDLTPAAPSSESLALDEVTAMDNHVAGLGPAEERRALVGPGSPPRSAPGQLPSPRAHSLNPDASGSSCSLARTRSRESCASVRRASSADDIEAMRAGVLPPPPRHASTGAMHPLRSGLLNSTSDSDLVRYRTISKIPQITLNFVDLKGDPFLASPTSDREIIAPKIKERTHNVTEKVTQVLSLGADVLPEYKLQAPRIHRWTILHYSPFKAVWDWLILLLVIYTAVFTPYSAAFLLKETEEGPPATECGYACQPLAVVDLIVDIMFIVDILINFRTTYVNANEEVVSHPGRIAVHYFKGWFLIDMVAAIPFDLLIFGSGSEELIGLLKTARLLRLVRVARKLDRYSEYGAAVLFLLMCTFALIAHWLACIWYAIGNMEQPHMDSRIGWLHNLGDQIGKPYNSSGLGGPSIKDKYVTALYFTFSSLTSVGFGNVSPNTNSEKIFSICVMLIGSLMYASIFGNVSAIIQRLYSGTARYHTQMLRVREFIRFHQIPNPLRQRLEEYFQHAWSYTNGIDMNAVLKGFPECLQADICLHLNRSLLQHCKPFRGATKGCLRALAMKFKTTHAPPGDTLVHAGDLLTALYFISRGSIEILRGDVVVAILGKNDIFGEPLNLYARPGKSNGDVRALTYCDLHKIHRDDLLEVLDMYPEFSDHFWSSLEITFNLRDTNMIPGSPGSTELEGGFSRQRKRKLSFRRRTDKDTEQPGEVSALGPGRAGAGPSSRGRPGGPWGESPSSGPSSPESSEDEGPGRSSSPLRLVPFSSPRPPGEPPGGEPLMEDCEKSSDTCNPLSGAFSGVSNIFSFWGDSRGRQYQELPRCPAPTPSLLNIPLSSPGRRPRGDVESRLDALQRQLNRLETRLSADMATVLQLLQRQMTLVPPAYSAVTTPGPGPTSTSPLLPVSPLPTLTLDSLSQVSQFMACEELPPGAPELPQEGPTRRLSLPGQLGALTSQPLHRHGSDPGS

This test concerns the target human ether-à-go-go-related gene (hERG) potassium channel (human, UniProt Q12809). As to the kind of experiment: primary screen, population patch clamp on CHO cells stably expressing hERG.
Regarding `CCOC(=O)c1c(C)sc2c1N(C(=O)CCl)c1cc(Cl)ccc1S2`, the “hERG current change (%, negative = inhibition) at 10uM” value is -3.3%.
As for `Cc1nn2c(N3CCN(C4CCCC4)CC3)cc(C(C)(C)C)nc2c1-c1ccccc1`, the “hERG current change (%, negative = inhibition) at 10uM” value is -3.53%.
The value for `CC1CCCC(C)N1C(=O)COC(=O)CCC1CCCC1` (centres unmarked) was 5.68%; that for `N=C1C(=O)OCC1c1ccccc1NC(=O)c1ccc(F)cc1` (centres unmarked) was -1.16%; that for `O=C1C(=O)N(CC2COc3ccccc3O2)c2ccccc21` (centres unmarked) was 15.8%.
Turning to `CC(C)CN(C(=O)COC(=O)c1ccccc1NCc1ccco1)c1c(N)n(Cc2ccccc2)c(=O)[nH]c1=O`, the “hERG current change (%, negative = inhibition) at 10uM” value was -14%.
On to `COCC(C)n1c(C)cc(C(=O)CN2C(=O)NC(Cc3c[nH]c4ccccc34)C2=O)c1C` (centres unmarked), for which the “hERG current change (%, negative = inhibition) at 10uM” value was 6.69%.
In the case of `O=C(NCCc1cnc[nH]1)c1ccc(-c2ccccc2)cc1` it was -13%.
In the case of `COc1ccccc1NC(=O)CSc1nnc(-c2ccco2)o1` it was -0.698%; in that of `COc1ccccc1N1CCN(S(=O)(=O)c2ccccc2)CC1`, -10.1%; in that of `CCSc1nnc(-c2ccccc2N)c(=O)[nH]1`, 17.2%.
In the case of `COc1ccc(NC(=S)N2CCN(C(=O)c3ccccc3)CC2)cc1`, the “hERG current change (%, negative = inhibition) at 10uM” value is on record as -11.6%.
The value for `Cc1cccc(OCC(=O)Nc2ccccc2N2CCCCC2)c1` was 2.17%.
As to `CC1(C)CC(=O)C(C(=O)CCCCC(=O)C2C(=O)CC(C)(C)CC2=O)C(=O)C1`, the “hERG current change (%, negative = inhibition) at 10uM” value is -0.168%.
Take `CCc1ccccc1NC(=O)CCC(=O)OCC(=O)c1ccc(-c2ccccc2)cc1`: the “hERG current change (%, negative = inhibition) at 10uM” value turned out to be 0.642%.
As to `Cc1ccc(Cl)cc1NC(=O)C1CC(=O)Nc2ncnn21` (centres unmarked), the “hERG current change (%, negative = inhibition) at 10uM” value was 12.9%.
For `COc1ccc(C(C)=O)cc1COC(=O)CNC(=O)c1ccccc1F`, the “hERG current change (%, negative = inhibition) at 10uM” value is -2.02%.
With `COc1ccc(N2CCN(C(=O)CNC(=O)Cn3cnc4sc(C)c(C)c4c3=O)CC2)cc1`, the “hERG current change (%, negative = inhibition) at 10uM” value was -3.61%.
Take `CCN=C(NCC)SC1CC(=O)N(c2cccc(OC)c2)C1=O` (centres unmarked): the “hERG current change (%, negative = inhibition) at 10uM” value was found to be 8.29%.
Turning to `Cc1cccc(-n2nc3c(c2NC(=O)C(C)C)CSC3)c1`, the “hERG current change (%, negative = inhibition) at 10uM” value is given as -32.5%.
In the case of `COc1ccc(CNC(=O)C2(CC3CC(c4ccccc4)=NO3)CCN(C(=O)CCCCCBr)CC2)cc1` (centres unmarked), the “hERG current change (%, negative = inhibition) at 10uM” value is recorded as -76.9%.
The value for `C=CCN(CC=C)C(=S)NC(=O)c1ccc(-c2ccccc2)cc1` was 6.2%.
Turning to `CCC(C)C(NC(=O)C(C)NC(=O)CNC(=O)CNC(=O)OCc1ccccc1)C(=O)OC` (centres unmarked) (Cbz-GGAI-OMe; configuration not given here), the “hERG current change (%, negative = inhibition) at 10uM” value came to 16.9%.
For `Cc1ccc(NC(=O)CCNS(=O)(=O)c2ccc(Br)cc2)cc1S(=O)(=O)N1CCOCC1`, the “hERG current change (%, negative = inhibition) at 10uM” value is reported as -19.4%.
Turning to `O=C(COC(=O)CN1C(=O)c2cccc([N+](=O)[O-])c2C1=O)NC1CCS(=O)(=O)C1` (centres unmarked), the “hERG current change (%, negative = inhibition) at 10uM” value is -2.61%.
Regarding `CCN(CC)C(=O)c1ccc(CS(=O)(=O)c2ccc(Br)cc2)cc1`, the “hERG current change (%, negative = inhibition) at 10uM” value is given as -4.39%.
Turning to `CN(C)CCN(Cc1cc2cc3c(cc2[nH]c1=O)OCO3)C(=S)NCC1CCCO1` (centres unmarked), the “hERG current change (%, negative = inhibition) at 10uM” value is recorded as 1.14%.
On to `Cc1cccn2c(=O)c3cc(C(=O)NC(C)c4ccccc4)c(=N)n(CCCn4ccnc4)c3nc12` (centres unmarked), for which the “hERG current change (%, negative = inhibition) at 10uM” value is listed as -68.1%.
Consider `O=C(c1cccc(N2C(=O)C3CC=CCC3C2=O)c1)N1CCN(c2ccccc2)CC1` (centres unmarked), for which the “hERG current change (%, negative = inhibition) at 10uM” value is -7.16%.
For `COc1cc(NC(=O)C2=C(N3CCOCC3)/C(=C\c3ccc(Br)cc3)CC2)cc(OC)c1OC`, the “hERG current change (%, negative = inhibition) at 10uM” value is given as -8.86%.
On to `Cc1cccc2cc(C(c3nnnn3CC3CCCO3)N3CCOCC3)c(=O)[nH]c12` (centres unmarked), for which the “hERG current change (%, negative = inhibition) at 10uM” value is -3.75%.
In the case of `O=C(/C=C/c1cccs1)N1CCc2ccccc21` it was 7.16%; in that of `COc1cccc2cc(C(=O)N3CCN(c4ncccn4)CC3)c(=O)oc12`, -1.53%; in that of `Cc1ccc(CNC(=O)CCC2CCCN(C(=O)c3ccc4c(c3)OCO4)C2)o1` (centres unmarked), -20.5%.
The value for `O=C(Cc1cccc(NC(=O)C2CCN(C(=O)c3ccccc3)CC2)c1)Nc1cccc(C(=O)N2CCCC2)c1` was 8.17%.
For the compound `COc1ccccc1CN1CC(C(=O)N2CCN(c3ccc(F)cc3)CC2)CC1=O` (centres unmarked), the “hERG current change (%, negative = inhibition) at 10uM” value was -43%.
Turning to `CC(Oc1ccc(Cl)cc1)C(=O)Nc1ncccn1` (centres unmarked), the “hERG current change (%, negative = inhibition) at 10uM” value is reported as -5.54%.
Take `COC(=O)c1cccc(NS(C)(=O)=O)c1`: the “hERG current change (%, negative = inhibition) at 10uM” value was 12.9%.
`O=C(NN1C(=O)C2C(C1=O)C1C=CC2C12CC2)c1ccc(Cl)cc1` (centres unmarked): the “hERG current change (%, negative = inhibition) at 10uM” value was found to be 1.78%.
With `COc1cc(C(O)CO)ccc1OS(=O)(=O)[O-].[K+]` (centres unmarked), the “hERG current change (%, negative = inhibition) at 10uM” value is listed as 9.76%.
Take `CCn1cc(/C=C/C(=O)Nc2c(C)nn(Cc3ccccc3C)c2C)cn1`: the “hERG current change (%, negative = inhibition) at 10uM” value is listed as 4.46%.
For `CC(C)c1ccc(N(C(=O)c2csnn2)C(C(=O)NC2CCCC2)c2cccnc2)cc1` (centres unmarked), the “hERG current change (%, negative = inhibition) at 10uM” value was -30.7%.
For the compound `O=C(O)c1ccc(Nc2ccc(F)c(F)c2)c([N+](=O)[O-])c1`, the “hERG current change (%, negative = inhibition) at 10uM” value was determined as 8.59%.
The value for `COc1ccc(N2CCN(CCCNC(=O)CCCn3c(=O)[nH]c4ccsc4c3=O)CC2)cc1` was -9.7%.
Turning to `O=C(NCCc1cccc(C(F)(F)F)c1)C1CCC(=O)N(CCc2cccc(F)c2)C1` (centres unmarked), the “hERG current change (%, negative = inhibition) at 10uM” value is given as -56.8%.
As for `CC(C)CNS(=O)(=O)c1ccc(CCC(=O)N2CCN(c3ccccc3)CC2)cc1`, the “hERG current change (%, negative = inhibition) at 10uM” value was -91.3%.
On to `CC1(C)Oc2ccc3ccc(=O)oc3c2/C(=C/N)C1=O`, for which the “hERG current change (%, negative = inhibition) at 10uM” value amounted to 5.25%.
Take `Cc1ccc(S(=O)(=O)N2[C@@H](c3ccccc3F)C(C(=O)O)=CC[C@H]2c2ccc3c(c2)OCO3)cc1`: the “hERG current change (%, negative = inhibition) at 10uM” value stood at 17%.
In the case of `C=C(C)Cn1c(-c2ccc(OC)cc2)nc2ccccc21` it was -23.4%.
In the case of `COc1cccc(N(CC(=O)NCc2ccccc2)C(=O)CCC(=O)Nc2nccs2)c1`, the “hERG current change (%, negative = inhibition) at 10uM” value is 10.8%.
The value for `O=C(C(=O)N1CCN(c2ccc(F)cc2)CC1)N1CCCCC1` was -6.39%; that for `COc1ccc(Cl)cc1NC(=O)CN1CCN(C(=O)N2CCOCC2)CC1` was -38.8%; that for `COc1ccc2nc(C)cc(SCC(NC(C)=O)C(=O)OC(C)C)c2c1` (centres unmarked) was -16.4%.

For the origin of these results see paper PMC4336329 (PLoS ONE, 2015).
